The text below walks through data of PubChem BioAssay AID488969 (Vanderbilt High Throughput Screening Facility, 2010).

Whole data set: some 110,000 compounds, median “z-score” near -0.1, cut for the highest 2% near 2. The list shows a part of the results.

In the test the target is Metabotropic glutamate receptor 8 (Rattus norvegicus) (UniProt P70579). Briefly: mGluR8 Gi/Go-coupled signaling modulation – cell-based, rat, thallium flux, HTS, primary screen (AID 488969). Conditions: HEK293 rat mGluR8, GIRK (G protein-gated inwardly rectifying potassium channel) thallium flux, FluoZin2; at 10 µM; stronger effect = higher value; submaximal glutamate (EC20) added with thallium.
Chain of UniProt P70579 (P70579 whole entry, looked up): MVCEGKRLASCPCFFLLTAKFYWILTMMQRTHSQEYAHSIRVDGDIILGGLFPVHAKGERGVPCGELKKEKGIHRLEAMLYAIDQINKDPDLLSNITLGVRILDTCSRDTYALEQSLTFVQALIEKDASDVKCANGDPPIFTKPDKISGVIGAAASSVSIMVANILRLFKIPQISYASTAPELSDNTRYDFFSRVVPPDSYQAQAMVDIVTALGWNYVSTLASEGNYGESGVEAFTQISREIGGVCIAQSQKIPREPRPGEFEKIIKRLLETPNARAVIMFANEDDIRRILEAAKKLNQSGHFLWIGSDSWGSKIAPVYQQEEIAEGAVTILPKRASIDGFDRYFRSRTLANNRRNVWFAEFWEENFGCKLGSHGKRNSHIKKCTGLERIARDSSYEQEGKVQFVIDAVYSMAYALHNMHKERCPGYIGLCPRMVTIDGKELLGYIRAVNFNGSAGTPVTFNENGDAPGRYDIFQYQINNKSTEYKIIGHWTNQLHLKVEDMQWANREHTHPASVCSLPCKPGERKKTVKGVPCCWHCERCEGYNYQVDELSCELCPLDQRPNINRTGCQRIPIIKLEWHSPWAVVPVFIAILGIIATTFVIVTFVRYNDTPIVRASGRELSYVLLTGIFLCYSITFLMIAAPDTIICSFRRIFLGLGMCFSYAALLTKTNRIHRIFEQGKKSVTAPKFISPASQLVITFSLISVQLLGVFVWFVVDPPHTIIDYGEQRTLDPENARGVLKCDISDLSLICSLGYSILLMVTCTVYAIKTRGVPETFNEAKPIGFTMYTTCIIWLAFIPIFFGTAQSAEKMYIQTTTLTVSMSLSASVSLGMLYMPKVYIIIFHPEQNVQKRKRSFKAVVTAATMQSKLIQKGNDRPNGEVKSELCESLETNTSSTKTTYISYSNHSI
Consider `CCc1nc2c(c(SC)nn2-c2ccccc2)c(N)c1C(=O)OC`, for which the z-score is -0.0976.

Molecule `Cc1ccc(S(=O)(=O)NC2=NCN(CCc3ccccc3)CN2)cc1` showed a z-score of 0.208. As for `Cc1cc(Cl)ccc1NC(=S)Nc1cccnc1`, the z-score amounted to 0.185. Consider `O=c1cc(N2CCc3ccccc3C2)[nH]c(=O)n1-c1ccccc1Cl`, for which the z-score is -0.119. Consider `Cc1ccc(C(=O)N2CCCC2)c(F)c1F`, for which the z-score worked out at 0.434. For `CCCCN(CC)CCCNC(=O)c1cc2c(=O)n(C)c3ccccc3c2n1C`, the z-score amounted to 2.54. Under `O=C1c2cnccc2CN1Cc1ccccc1` stands 0.167; under `COC(=O)c1ccc2ncccc2c1`, 0.221. Regarding `CS(=O)(=O)Nc1ccccc1Oc1ccccc1`, the z-score was 0.607. In turn, `C=CCN(CC=C)S(=O)(=O)c1ccc(NC(=O)COc2ccccc2OC)cc1` registered a z-score of -1.06. Consider `Cc1csc(SCC(=O)NC2CCCCC2)n1`, for which the z-score amounted to 0.0512. In turn, `O=C1C2C(C(=O)N1/N=C/c1cc(Br)cc([N+](=O)[O-])c1O)C1C=CC2C12CC2` (stereo unspecified) had a z-score of -0.105. Regarding `NNc1nnc(-c2ccccc2)c(-c2ccccc2)n1`, the z-score was -0.209. The value for `CCCCC(=O)/C=C/n1c(=S)oc2ccccc21` was 0.18. The value for `CC(C)(C)c1ccc(C(=O)N/N=C2\C3CN4CCN(C3)CC2(c2ccccc2)C4)cc1` was -0.109. As for `CNC(=S)NN(c1ccccc1)c1ccccc1`, the z-score is -0.0349. The value for `CCOc1ccc(C2c3c(oc4ccccc4c3=O)C(=O)N2CCCN2CCOCC2)cc1OCC` (stereo unspecified) was -0.261; that for `CSc1ncccc1C(=O)NCc1ccc(C)cc1` was -0.146. The value for `CCn1c(SCC(=O)Nc2nccs2)nnc1-c1ccc(S(=O)(=O)N2CCCCC2)cc1` was -0.571. Consider `C=CCNC(=S)NNc1ncnc2sc3c(c12)CC(C)(C)OC3`, for which the z-score is -0.0467.

As for `COC(=O)c1sccc1-n1cccc1C(=O)C(=O)N1CCCCC1`, the z-score stood at 0.164.

`O=C(CSc1nc2c(cnn2-c2ccc(F)cc2)c(=O)[nH]1)N1CCCc2ccccc21` yielded a z-score of -1.11. `COc1ccc(-n2nnnc2SCC(=O)c2ccc(O)c(O)c2)cc1` came in with a z-score of -0.311. The molecule `COc1ccc(-c2nnc(SCC(=O)N3CCCC(C)C3)o2)c(OC)c1` (stereo unspecified) gave a z-score of -0.551. The value for `COc1ccc(/C=N/NC(=O)/C(=C/c2ccccc2)CCO)cc1` was -0.213. In the case of `CCOc1ccc(-n2c(SCC(N)=O)nc3c([nH]c4ccccc43)c2=O)cc1`, the z-score is -0.659. `N#CC1=C(SCC(N)=O)NC2=C(C(=O)c3ccccc32)C1c1ccc(Cl)cc1` (stereo unspecified) returned a z-score of -0.209. Under `COc1ccc(Nc2nnc(SCC(=O)N3CCCC3)s2)cc1` stands -0.123. For `COc1ccc(N2CCN(Cc3ccc(Br)s3)CC2)cc1`, the z-score is -0.248. As for `O=C(CN1CCCC1)N1c2ccccc2Sc2ccccc21`, the z-score was -0.191.

In the case of `CCCn1c(C)cc(C(=O)COC(=O)c2cc(S(=O)(=O)NCC(C)C)c(Cl)cc2Cl)c1C`, the z-score is -0.217.

For `COc1ccc(-c2cc(-c3ccc(OC)cc3)c(C#N)c(SC)n2)cc1`, the z-score was -0.315. Under `CC(C)(C)N(Cc1ccccc1)C(=O)COC(=O)CCc1c[nH]c2ccccc12` stands -0.439; under `Cc1ccc(NC(=S)Nc2ccc3cn[nH]c3c2)cc1`, 0.244; under `CC(C)NC(=O)N1CCN(c2ccncc2S(=O)(=O)N2CCOCC2)CC1`, 0.465. Under `C=C(C)COc1ccc(-c2n[nH]c(C)c2-c2ccc(Br)cc2)c(O)c1` stands 0.114; under `CCN1CCN(c2ccc(NC(=O)c3cccc4ncccc34)cc2)CC1`, -0.573; under `CN(C(=O)CSc1nnc(-c2ccccc2)c(-c2ccccc2)n1)C1CCS(=O)(=O)C1` (stereo unspecified), -0.261.

With `Cc1ccc2nc(-c3ccc(O)cc3)c(Nc3ccc4c(c3)OCCO4)n2c1`, the z-score was -1.43. `Cc1cc(C)c2cc(CN(Cc3cccnc3)C(=O)c3ccc(F)cc3)c(Cl)nc2c1` gave a z-score of -0.319. The value for `CN(C)S(=O)(=O)N1CCN(c2ccccc2)CC1` was -0.987. The value for `Cc1cccc(C=Nc2ccccc2C(N)=O)c1` was 0.476; that for `Cc1c(C(=O)N2c3ccccc3Sc3ccccc32)cccc1[N+](=O)[O-]` was 0.746.

With `CCOC(=O)c1sc(=S)n(CC)c1NC(=O)CC`, the z-score is 0.17.

Regarding `COc1ccc(N2CCN(C(=O)C3CCCO3)CC2)cc1` (stereo unspecified), the z-score is -0.132. Under `Cc1c(Cl)c([N+](=O)[O-])nn1Cc1ccc(C(=O)N/N=C\c2cccc(Br)c2)o1` stands -0.00818. `CCN(CC)C(=O)C1CCCN(C(=O)Nc2ccc(NC(=O)N3CCCC(C(=O)N(CC)CC)C3)cc2)C1` (stereo unspecified) yielded a z-score of -0.196. For the molecule `CCOC(=O)c1c(NC(C)=O)sc2c1CCC(C=O)=C2Sc1ccccc1`, the z-score is -0.306. Under `O=C1c2ccccc2C(O)N1c1ccc(Cl)cc1` (stereo unspecified) stands -0.698; under `CCNc1oc(-c2ccc(OC)cc2)nc1S(=O)(=O)c1ccc(Br)cc1`, 0.0764. In the case of `COc1nnc(-c2ccc(N3CCOCC3)c(NC(=O)c3ccc(C)cc3)c2)c2ccccc12`, the z-score was -0.0573. The value for `O=C(O)[C@H](Cc1ccccc1)NC(=O)N1CCOCC1` was 0.842. `Cc1ccsc1/C=C(\C#N)C(=O)NCc1cccnc1` showed a z-score of -0.246.

Take `Cc1ccc(C)c(SCC(=O)Nc2cc(C)nn2-c2ccc(F)cc2)c1`: the z-score is -0.244.

The molecule `COc1ccc(C(=O)O/N=C(\N)Cc2ccc(Cl)cc2)cc1OC` displayed a z-score of -0.494. Under `COc1cc(/C=C/C(=O)Nc2ccc(C(C)=O)cc2)cc(OC)c1OC` stands -0.984; under `Cc1cc(C)n2c3c(c(C#N)c2n1)CCCC3`, -1.08; under `CC(=O)OC(C(=O)NC1CCCCC1)c1ccc(Cl)cc1` (stereo unspecified), -0.136. Molecule `O=[N+]([O-])c1cc(Cl)ccc1NCCNc1ncc(C(F)(F)F)cc1Cl` displayed a z-score of 0.0771. Under `O=C(Nc1ccccc1N1CCOCC1)c1cnccn1` stands -0.146; under `CCOc1ccc(NC(=S)N2CCc3cc(OC)c(OC)cc3C2COc2ccc3c(C)cc(=O)oc3c2)cc1` (stereo unspecified), -0.257. The value for `Cc1cc2nc(C3CCCN(C(=S)Nc4ccccc4C)C3)[nH]c2cc1C` (stereo unspecified) was -0.278; that for `c1ccc(Cc2nnc3sc(-c4ccco4)nn23)cc1` was -0.35; that for `O=C(COc1ccc2c(-c3ccccc3)cc(=O)oc2c1)NCc1cccs1` was -0.241. Molecule `CC(=O)c1cc(-c2ccc(F)cc2)n(CCC(=O)Nc2cc(C)[nH]n2)c1C` yielded a z-score of -0.277. Under `CCCN(CC(=O)Nc1c(C)cccc1CC)C(=O)SCC` stands -1.26; under `O=C(Nc1ccccc1)N1CCc2ccccc21`, -0.39; under `COC(=O)[C@H](C)NC(=O)NCc1ccc(F)cc1`, 0.136. `CN(C)c1ccc(C(CNC(=O)c2ccc(F)cc2)c2c[nH]c3ccccc23)cc1` (stereo unspecified) had a z-score of -0.679.

`CCc1ccc2c(COC(=O)CNS(=O)(=O)c3ccc(NC(C)=O)cc3)cc(=O)oc2c1` yielded a z-score of -0.405. In turn, `Cc1nn(CC(=O)NCc2cc3ccccc3[nH]2)c(C)c1[N+](=O)[O-]` came in with a z-score of -0.249.
